# According to the BET-seq Pho4 binding data (Le et al. 2018):
# This is one part of the list. The energies were worked out here from pooled read counts, against the library average; single values are noisy.
# Target: T1, Pho4 (S. cerevisiae) (UniProt P07270)
# T1 sequence: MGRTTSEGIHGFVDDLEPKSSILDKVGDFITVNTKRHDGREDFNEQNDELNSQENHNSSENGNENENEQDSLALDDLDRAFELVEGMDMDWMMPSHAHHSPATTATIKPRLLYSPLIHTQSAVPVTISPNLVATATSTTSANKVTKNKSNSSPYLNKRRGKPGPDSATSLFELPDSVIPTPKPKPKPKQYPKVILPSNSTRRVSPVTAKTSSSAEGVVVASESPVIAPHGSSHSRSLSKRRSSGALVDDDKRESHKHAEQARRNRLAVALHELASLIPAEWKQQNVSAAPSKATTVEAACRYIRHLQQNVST
# Assay: relative binding free energy (BET-seq); higher = weaker binding
# Details: reference: library average
row,Sequence,relative binding free energy [kcal/mol]
1,ATCCTCACGTGTGGTT,0.3
2,GTTGACACGTGAGTGT,0.32
3,CAGGGCACGTGGTAGT,-0.19
4,AGATTCACGTGGAGCT,0.38
5,TTTGCCACGTGAAGTT,0.16
6,GTTCTCACGTGAAGGG,0.4
7,TTGTACACGTGTATAT,0.03
8,AGGTTCACGTGTAATT,0.34
9,TGGGGCACGTGTTGAC,0.03
10,GGTATCACGTGGCTGA,0.2
11,AATTCCACGTGGATGG,0.15
12,GTGGTCACGTGGTTGC,0.14
13,CGTGGCACGTGTGAAT,0.02
14,AGTTTCACGTGGATCT,0.25
15,CTTTGCACGTGTTGAT,-0.03
16,GGTTGCACGTGTTCTA,0.05
17,TGGATCACGTGATTAT,0.23
18,GATCGCACGTGGGTAT,-0.09
19,CTGTACACGTGTTGTA,0.05
20,CGTGGCACGTGGCCTG,-0.17
21,TTTGGCACGTGATATG,-0.02
22,GAGTTCACGTGATCTT,0.48
23,TGGGCCACGTGTGTAG,-0.08
24,TTCAACACGTGGAGTG,0.05
25,TTAGTCACGTGTGCAG,0.05

row,Sequence,relative binding free energy [kcal/mol]
1,TTATGCACGTGAGTAA,0.17
2,GGACTCACGTGTTTGA,0.24
3,AGGATCACGTGGAGAG,0.22
4,CCTGTCACGTGGTGGG,0.03
5,GGTAGCACGTGGATGC,-0.03
6,TCAGACACGTGTTTTT,0.05
7,TCTGTCACGTGGCGGT,0.01
8,TTGGTCACGTGTGTGA,0.22
9,CAGTACACGTGAGGGT,0.2
10,CTTGGCACGTGGGAGG,-0.13
11,TGTTTCACGTGGTGCA,0.18
12,TTATGCACGTGTAACG,0.05
13,TCTGGCACGTGTGGTT,0.05
14,TGTGTCACGTGTCCTA,0.18
15,GTGAACACGTGGTCTG,0.02
16,TATGTCACGTGAAAGT,0.23
17,ATGTGCACGTGGGCGT,-0.16
18,CTGAGCACGTGTTGGG,-0.09
19,GGTCGCACGTGGGGCA,-0.3
20,AGGGGCACGTGCTATA,-0.29
21,GGACTCACGTGTCGGT,0.3
22,AGGGGCACGTGGGGGC,-0.23
23,TAGGACACGTGGGAGT,-0.01
24,ATGGTCACGTGCTGAA,0.23
25,TGTACCACGTGTTATG,-0.04

row,Sequence,relative binding free energy [kcal/mol]
1,GATATCACGTGGGTTG,-0.06
2,TGACTCACGTGTTAGG,0.14
3,TTTAGCACGTGCGAGT,-0.01
4,TGTTGCACGTGTGAGC,0.07
5,GGGGCCACGTGTACGG,0.03
6,GGGCGCACGTGTAGTA,-0.02
7,TGTTCCACGTGTGATT,0.08
8,GTTTTCACGTGCTGTG,0.22
9,AGGAACACGTGCTTGG,0.12
10,TCGGGCACGTGTTGGA,0.01
11,ATTTGCACGTGTGATC,0.15
12,GTAGACACGTGTTGAG,-0.03
13,GCCGTCACGTGGGTTA,0.05
14,GGTCACACGTGGGGAA,0.07
15,GGATACACGTGCAGGG,0.04
16,ATGGGCACGTGGGGGT,-0.17
17,GGGCTCACGTGCGGAG,0.21
18,GATGTCACGTGGTTGG,0.13
19,CGGGGCACGTGAACGG,-0.01
20,GGTTGCACGTGATTAC,0.2
21,TGTATCACGTGATGGA,0.23
22,GGAGCCACGTGCTGGG,-0.06
23,TGTATCACGTGTGCAG,0.09
24,TTGGACACGTGGCTTG,-0.11
25,TTATGCACGTGGGCAG,-0.17

row,Sequence,relative binding free energy [kcal/mol]
1,AGTGTCACGTGTAGCA,-0.09
2,GCGTTCACGTGTAATT,0.38
3,CCTTGCACGTGTTGTG,-0.14
4,TTGCGCACGTGCGTTG,-0.08
5,TTTAGCACGTGTCAAG,0.15
6,AAGTGCACGTGAGTTA,0.07
7,GGAGCCACGTGTGAGG,-0.05
8,GATTTCACGTGGAAGG,0.28
9,GGTTACACGTGCGTGA,0.09
10,CGTGGCACGTGACGGG,0.02
11,GTTAACACGTGATTTG,0.28
12,AATGGCACGTGCCGGG,-0.25
13,CGTGTCACGTGGCGTG,0.01
14,GTGTTCACGTGGGCTC,0.16
15,ATATGCACGTGAGGTC,0.06
16,GTCCGCACGTGGTGAG,0.03
17,CTGTTCACGTGTGTTT,0.36
18,TAGGTCACGTGTGTTA,0.07
19,GGAAACACGTGGTTTT,-0.12
20,GATGTCACGTGTAGGG,0.25
21,GGGGCCACGTGAGTGA,0.22
22,TACGTCACGTGGGGAT,-0.12
23,GATTTCACGTGGTGTT,0.39
24,TGTCTCACGTGGTAGC,0.14
25,CTTGGCACGTGGGCCG,-0.21

row,Sequence,relative binding free energy [kcal/mol]
1,GTTTGCACGTGGGGTA,-0.11
2,TGTGGCACGTGTCTAG,-0.19
3,GTTTTCACGTGTATAC,0.23
4,TAGAACACGTGTAATG,0.08
5,GGAGTCACGTGTAGTG,0.28
6,GATATCACGTGGGGAT,0.15
7,CTTGCCACGTGTAGGT,-0.01
8,ATTTGCACGTGGCAAG,0.02
9,GATTACACGTGAATTT,0.52
10,CAAGTCACGTGGTCGG,0.03
11,TTAGTCACGTGAGAGG,0.25
12,TGTATCACGTGTCGTG,0.14
13,GAAGACACGTGGTGGG,0.05
14,ACCTGCACGTGTGTGG,-0.12
15,GGGGGCACGTGGAACG,-0.11
16,GGGGGCACGTGCGATT,-0.06
17,GGATTCACGTGTGTTC,0.2
18,CGATACACGTGATTGG,0.18
19,TGGTGCACGTGTCAGA,0.06
20,TGTCGCACGTGCTAGG,-0.08
21,ATCGTCACGTGAGAGT,0.2
22,TGGTGCACGTGGCAGT,-0.13
23,GTCGGCACGTGCGGTG,-0.1
24,TGCGTCACGTGTGGCA,-0.01
25,TTTAGCACGTGAATCG,0.36

row,Sequence,relative binding free energy [kcal/mol]
1,CGTTTCACGTGGCGTT,0.25
2,AGGAGCACGTGGGGCC,-0.21
3,TTCTCCACGTGGGGTT,-0.13
4,TTGTTCACGTGTTTAG,0.19
5,AGTCGCACGTGGGGGG,-0.17
6,TTAGACACGTGTTTGC,-0.03
7,GTATTCACGTGGTACA,0.08
8,AGTAGCACGTGATGTG,-0.1
9,CGTCTCACGTGAATGT,0.63
10,TGGGACACGTGGCTTT,0.01
11,AGGGTCACGTGTTCGG,0.14
12,GAGAGCACGTGGCAGG,-0.16
13,CTTGTCACGTGAGTTG,0.35
14,GTTCCCACGTGGTGTT,-0.09
15,AATTGCACGTGGTTGT,-0.08
16,CTGGGCACGTGCGTGC,-0.09
17,ATGGACACGTGGCTTG,-0.12
18,GTTTACACGTGGAGGC,0.14
19,TCGGTCACGTGATATA,0.24
20,TAAAGCACGTGCGTGT,-0.07
21,ACTGGCACGTGGGGGG,-0.23
